# ± gives the standard deviation of the averaged measurements. In all, about 33,000 sequences were measured (“E-score (dimensionless, -0.5 to 0.5)”: median about -0.046, highest 2% from about 0.36 on). This is one part of the list.
# Tested on: T1, SpTbr T-box DNA-binding domain (GST fusion)
# T1 sequence: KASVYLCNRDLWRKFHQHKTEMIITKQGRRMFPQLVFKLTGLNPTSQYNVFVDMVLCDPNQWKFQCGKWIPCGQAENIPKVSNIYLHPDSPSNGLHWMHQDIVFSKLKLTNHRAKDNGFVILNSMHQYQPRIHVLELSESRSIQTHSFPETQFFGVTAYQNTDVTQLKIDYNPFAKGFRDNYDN
# Test: PBM E-score of 8-mer (E-score (dimensionless, -0.5 to 0.5)); Tbr is Tbrain of the sea star Patiria miniata (Pm) or the sea urchin Strongylocentrotus purpuratus (Sp); higher = stronger binding preference; most listed sequences are background and not binding sites
# Conditions: the construct has about 5 more residues each side
# How it was run: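 GST-fused Tbr T-box DNA-binding domains (the whole T-box plus about five flanking residues) were expressed in BL21 E. coli at 20 °C and purified by glutathione affinity chromatography. Universal Agilent oligonucleotide arrays were made double-stranded by primer extension, incubated with 200 nM protein in PBS (pH 7.5), then scanned and quantified. Every ungapped 8-mer was scored from probe intensities. The Universal PBM Analysis Suite gave each word an enrichment E-score, averaged over duplicate arrays.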
row,Sequence,PBM E-score of 8-mer
1,GAATCCAA,-0.176 ± 0.015
2,AAGGAAAC,0.0136 ± 0.033
3,ACCCAGTG,-0.0456 ± 0.03
4,ACACACTA,0.165 ± 0.042
5,AGTGGACC,-0.244 ± 0.074
6,AATGGGGC,-0.0417 ± 0.019
7,ATGTCCGA,-0.245 ± 0.031
8,CGATTTAA,-0.0373 ± 0.037
9,CATTAAAC,-0.109 ± 0.035
10,CAGGGATG,-0.0786 ± 0.0098
11,CTGTAACC,-0.0553 ± 0.019
12,GCTCTCCC,-0.276 ± 0.024
13,AAAATATT,-0.0954 ± 0.078
14,ATTATGCA,-0.239 ± 0.021
15,AAAGCATG,-0.0264 ± 0.029
16,CCGGGAAA,0.156 ± 0.0031
17,GGGAGGGA,-0.121 ± 0.015
18,CATAAATC,-0.0478 ± 0.039
19,GATTTGGA,-0.094 ± 0.069
20,GAGTAACA,0.211 ± 0.034
21,AAGGGTCA,0.0705 ± 0.055
22,ATCTTCTA,-0.13 ± 0.054
23,ACGGAAGC,-0.134 ± 0.026
24,CACCCTGC,0.214 ± 0.0075
25,GCATTCCC,-0.0683 ± 0.1

row,Sequence,PBM E-score of 8-mer
1,TACCTCAA,-0.13 ± 0.045
2,CGCCAGCG,0.165 ± 0.095
3,TTGTGAAA,0.361 ± 0.04
4,ACATGATC,-0.0613 ± 0.067
5,AAGGTTTA,-0.14 ± 0.011
6,ACATACCC,-0.125 ± 0.037
7,GCAAAGGA,-0.137 ± 0.023
8,ATCAACTA,0.00344 ± 0.03
9,ATATTCCC,-0.0234 ± 0.015
10,GAATTGCC,0.0106 ± 0.041
11,GACCAACC,-0.166 ± 0.066
12,AAAGCAGA,-0.125 ± 0.033
13,CAAGAGGA,0.00677 ± 0.073
14,ATACAGAA,-0.0731 ± 0.052
15,CATGGCGG,-0.194 ± 0.045
16,CCGTGGCG,0.0364 ± 0.062
17,CCTTAAAG,-0.14 ± 0.083
18,AGCTGGTG,0.0589 ± 0.13
19,CATTTAGG,-0.124 ± 0.024
20,GCTTCGGA,-0.151 ± 0.019
21,GATTATGA,-0.122 ± 0.0078
22,CAAGTTCA,0.184 ± 0.021
23,CCGTTCGA,-0.145 ± 0.12
24,CGCGGCTC,0.218 ± 0.0081
25,CTGCAGAA,-0.137 ± 0.0057

row,Sequence,PBM E-score of 8-mer
1,CAGATGCA,-0.0647 ± 0.047
2,AACCACGA,0.0606 ± 0.04
3,CATAACCC,-0.235 ± 0.028
4,CTTGCAAA,0.0819 ± 0.029
5,GAATTGTA,-0.0667 ± 0.074
6,AGAAACAA,-0.113 ± 0.068
7,ACATTAAG,-0.139 ± 0.1
8,CCCGCCGA,-0.185 ± 0.14
9,ACCGGTTA,-0.0221 ± 0.0009
10,GTTGGGTA,-0.1908 ± 0.0016
11,GGAGGCTA,-0.213 ± 0.011
12,CCCAAGGC,-0.0975 ± 0.08
13,ATAATCGC,0.0913 ± 0.063
14,GTGTTATA,0.4 ± 0.034
15,CCAAAAAG,-0.148 ± 0.0032
16,ACCACGGG,0.0545 ± 0.0064
17,AATTTTAC,-0.131 ± 0.087
18,AATTAGCT,-0.0837 ± 0.018
19,GCCCCCCC,-0.255 ± 0.053
20,CTGCGGAA,-0.19 ± 0.043
21,AGCGCGAA,0.405 ± 0.019
22,GATATTCA,-0.0962 ± 0.058
23,TCCTTGAA,-0.29 ± 0.038
24,AGGGTTCG,-0.0552 ± 0.012
25,TATTGACA,0.278 ± 0.019

row,Sequence,PBM E-score of 8-mer
1,ACGGATAT,-0.181 ± 0.01
2,CCAGGTCC,-0.113 ± 0.031
3,CTCTCACC,0.38 ± 0.021
4,ACAGCCCT,-0.109 ± 0.054
5,CGACATCG,0.0463 ± 0.043
6,GTTATCTA,0.0706 ± 0.0013
7,GACCAGCA,-0.126 ± 0.021
8,AACACCGT,0.243 ± 0.091
9,CCCTCTTA,-0.0837 ± 0.0085
10,AAGGCTTG,-0.15 ± 0.021
11,CAACGTAC,-0.00945 ± 0.021
12,CGATAGCG,0.219 ± 0.009
13,CCAGCGGA,-0.0913 ± 0.043
14,ACTAAATA,-0.131 ± 0.019
15,ACGCATGC,-0.136 ± 0.041
16,CTATAATA,-0.22 ± 0.028
17,AGGGGTAT,-0.258 ± 0.084
18,CAAGCATA,-0.233 ± 0.018
19,GTCGCGGA,0.102 ± 0.055
20,AACATAGC,0.112 ± 0.0027
21,CACATCCA,0.268 ± 0.046
22,GCATAGGC,-0.219 ± 0.021
23,ACAACACT,0.345 ± 0.0051
24,CCAAATAC,-0.0967 ± 0.0038
25,ACGCCGTA,-0.0348 ± 0.0028

row,Sequence,PBM E-score of 8-mer
1,GGATGTTA,-0.0817 ± 0.033
2,CTCGGAAA,-0.132 ± 0.012
3,CTTGCAGA,-0.212 ± 0.082
4,GTAAAAGA,0.113 ± 0.045
5,ACCAAAGT,0.0243 ± 0.011
6,AACCAGTG,-0.00855 ± 0.045
7,CGAAGCAG,-0.114 ± 0.076
8,TTCCTCAA,-0.206 ± 0.082
9,ACAGCTGG,-0.00023 ± 0.086
10,GAAAGCGC,0.145 ± 0.048
11,GAACCTTC,-0.0942 ± 0.03
12,CCTAGACG,0.0153 ± 0.025
13,CTAATTTA,-0.154 ± 0.054
14,CACTGCAG,0.16 ± 0.011
15,AGATTCGC,0.1 ± 0.037
16,ATACCACG,-0.0212 ± 0.022
17,ATGGCGTG,0.138 ± 0.036
18,CGTGTACA,0.101 ± 0.0036
19,CACTTTAA,0.196 ± 0.064
20,CCGCCGCG,-0.00953 ± 0.015
21,ATCCTTTG,-0.247 ± 0.0049
22,ACCTTTTA,0.11 ± 0.0059
23,GATCGGCC,-0.185 ± 0.055
24,GTATGCAC,0.0616 ± 0.043
25,CACTTTTC,0.24 ± 0.025

row,Sequence,PBM E-score of 8-mer
1,ATGCCCGG,-0.0547 ± 0.0029
2,AAAATCCT,-0.228 ± 0.048
3,CCTGGATA,-0.0934 ± 0.048
4,ACCAGCTC,-0.0336 ± 0.0079
5,CGTCAACG,0.321 ± 0.0043
6,ACATCGCG,0.275 ± 0.034
7,TAAGTTAA,-0.102 ± 0.091
8,GATTGTGC,0.109 ± 0.006
9,CCTGCCGC,0.0182 ± 0.0095
10,TCGGTAAA,-0.0749 ± 0.016
11,ACTGACGA,-0.0709 ± 0.038
12,AGATACTC,-0.282 ± 0.035
13,AGTCTCCG,-0.19 ± 0.036
14,GCTGCCAC,0.178 ± 0.059
15,AAGGACAT,-0.00571 ± 0.042
16,GAAAAATA,-0.246 ± 0.077
17,GAGTACTC,-0.103 ± 0.11
18,GCAGTGTA,-0.129 ± 0.086
19,AACACTCA,0.31 ± 0.0041
20,AGGAGCCA,-0.00757 ± 0.016
21,TGGTGGAA,-0.0461 ± 0.00048
22,ACAGGCCG,-0.0254 ± 0.015
23,ATTTCTTG,-0.098 ± 0.035
24,GACGCAAC,0.128 ± 0.031
25,AAGTCCAT,-0.184 ± 0.035

row,Sequence,PBM E-score of 8-mer
1,ACAAGGTC,0.202 ± 0.026
2,ATCCATCC,-0.195 ± 0.019
3,GTAAGCCA,-0.199 ± 0.076
4,CATCATGC,-0.137 ± 0.03
5,AAGCGGAA,0.0108 ± 0.08
6,GCACTTCA,0.31 ± 0.032
7,TCTGAAAA,-0.27 ± 0.062
8,CATATAAA,-0.255 ± 0.0066
9,GAGCCACC,-0.0718 ± 0.02
10,ATGCAAAA,-0.285 ± 0.068
11,CATCACCG,-0.145 ± 0.11
12,CGGATCTC,-0.229 ± 0.027
13,CCTCGAAC,0.0681 ± 0.055
14,CTCTCGGA,-0.165 ± 0.012
15,CATTATGC,-0.168 ± 0.011
16,CCCATATA,-0.307 ± 0.014
17,GGGACACA,0.0277 ± 0.035
18,AGTGAAAC,0.0121 ± 0.054
19,CCCATCCG,-0.166 ± 0.027
20,ATATTCTC,-0.0643 ± 0.031
21,CATATGAC,-0.0145 ± 0.039
22,GAGTTACA,0.0163 ± 0.064

# Source: the supplement of paper PMC4166925
